The record followed here is publication PMC6664820, “Novel natural and synthetic inhibitors of solute carriers SGLT1 and SGLT2” (Pharmacology Research & Perspectives, 2019).

Out of some 1,900 compounds screened, about 40 (2%) showed an effect of 50% or more. Some of the results follow. Residues, ends and D or L forms follow the SMILES beside them.

Chain of human SGLT1 (hSGLT1) (P13866 whole entry, looked up): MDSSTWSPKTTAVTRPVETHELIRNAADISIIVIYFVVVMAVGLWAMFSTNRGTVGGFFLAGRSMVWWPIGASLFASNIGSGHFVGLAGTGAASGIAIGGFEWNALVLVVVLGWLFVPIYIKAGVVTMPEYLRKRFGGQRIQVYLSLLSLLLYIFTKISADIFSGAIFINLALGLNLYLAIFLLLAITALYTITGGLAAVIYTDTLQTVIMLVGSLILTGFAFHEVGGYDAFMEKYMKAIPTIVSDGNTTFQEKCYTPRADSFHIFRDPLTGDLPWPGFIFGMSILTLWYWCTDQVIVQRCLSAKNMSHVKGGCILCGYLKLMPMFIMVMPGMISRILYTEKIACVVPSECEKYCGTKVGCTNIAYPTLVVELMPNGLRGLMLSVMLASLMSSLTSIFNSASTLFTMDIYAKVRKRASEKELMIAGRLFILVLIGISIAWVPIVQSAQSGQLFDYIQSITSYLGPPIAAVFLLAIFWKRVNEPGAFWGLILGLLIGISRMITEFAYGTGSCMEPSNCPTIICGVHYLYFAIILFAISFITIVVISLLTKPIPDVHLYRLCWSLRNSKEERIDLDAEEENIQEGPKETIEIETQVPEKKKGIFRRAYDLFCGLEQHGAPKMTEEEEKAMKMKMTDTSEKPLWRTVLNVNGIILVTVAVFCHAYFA

The assay has as its target human SGLT1 (hSGLT1) (human, UniProt P13866). In words: primary screen, percent of control activity; higher = less effect of the substance. The arrangement: single well. As to conditions: 50 µM. In outline: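 Single-point screen at 50 µmol/L in CHO-hSGLT1 cells, with 160 µmol/L 1-NBD-glucose in glucose-free DMEM for 90 min at 37°C. Fluorescence from isopropanol extracts was calibrated, and CHO wild-type uptake was subtracted. Data are percent of uptake without compound.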
Turning to `CC12CCC(O)CC1CCC1C2[C@H](O)CC2(C)C(C3=CC(=O)OC3)CCC12O` (some centres unmarked), the “NORMALIZED SGLT1 ACTIVITY (%)” value was determined as 155%. With `COC(=O)NC(=S)Nc1ccccc1NC(=S)NC(=O)OC` the figure was 130%.

`CC(C)CC(NC(=O)CN)C(=O)NC(Cc1ccccc1)C(=O)O` (stereo not drawn) (H-Gly-Leu-Phe-OH; configuration not given here): the “NORMALIZED SGLT1 ACTIVITY (%)” value was determined as 94%. With `Cn1c(=O)c2[nH]cnc2n(C)c1=O` the figure was 147%; with `CN[C@@H]1[C@H](OC2[C@H](O[C@H]3[C@H](O)[C@@H](O)[C@H](NC(=N)N)[C@@H](O)[C@@H]3NC(=N)N)O[C@@H](C)[C@]2(O)C=O)O[C@@H](CO)[C@H](O)[C@H]1O.O=S(=O)(O)O` (some centres unmarked), 114%. With `CN(C)CCN(Cc1ccccc1)c1ccccn1.O=C(O)CC(O)(CC(=O)O)C(=O)O` the figure was 57%; with `CC12CC3CC(C)(C1)CC(N)(C3)C2.Cl`, 79%. For the compound `NC[C@H]1O[C@H](O[C@H]2[C@H](O)[C@@H](O[C@H]3O[C@H](CO)[C@@H](O)[C@H](N)[C@H]3O)[C@H](N)C[C@@H]2N)[C@H](N)C[C@@H]1O`, the “NORMALIZED SGLT1 ACTIVITY (%)” value amounted to 106%. With `CCc1nc(N)nc(N)c1-c1ccc(Cl)cc1` the figure was 82%. Turning to `C=CC(C1=CC(=O)C(OC)=CC1=O)c1ccccc1` (centres unmarked), the “NORMALIZED SGLT1 ACTIVITY (%)” value is 190%. With `COc1cnc(NS(=O)(=O)c2ccc(N)cc2)nc1` the figure was 110%; with `CC1(C)C(=O)C=C[C@@]2(C)C1=C(O)C(=O)[C@]1(C)C2CC[C@@]2(C)[C@H](c3ccoc3)C[C@H]3O[C@]321` (some centres unmarked), 45%.

With `CC(=O)O[C@H]1CC[C@@]2(C)C(C[C@@H](OC(C)=O)[C@@]3(C)C4=CC(=O)O[C@@H](c5ccoc5)[C@]4(C)CCC23)C1(C)C` (some centres unmarked), the “NORMALIZED SGLT1 ACTIVITY (%)” value is given as 358%. The value for `COc1ccc(-c2cc(=O)c3c(O)cc(O)cc3o2)cc1O` was 180%; that for `Cc1cc(NC(=O)C2=C(O)c3ccccc3S(=O)(=O)N2C)no1` was 97%. With `NCCCN.O=C(O)C(O)C(O)C(=O)O` (centres unmarked) the figure was 118%; with `Cc1ccc(C(=O)Nc2ccc(S(=O)(=O)[O-])c3cc(S(=O)(=O)[O-])cc(S(=O)(=O)[O-])c23)cc1NC(=O)c1cccc(NC(=O)Nc2cccc(C(=O)Nc3cc(C(=O)Nc4ccc(S(=O)(=O)[O-])c5cc(S(=O)(=O)[O-])cc(S(=O)(=O)[O-])c45)ccc3C)c2)c1.[Na+].[Na+].[Na+].[Na+].[Na+].[Na+]`, 114%; with `CC(=O)[C@H]1CCC2C3CC=C4C[C@@H](O)CC[C@]4(C)C3CC[C@@]21C` (some centres unmarked), 117%. For `CC(C)CCCC(C)C1CCC2C3CC(=O)[C@H]4C[C@@H](O)CC[C@]4(C)C3CC[C@]12C` (some centres unmarked), the “NORMALIZED SGLT1 ACTIVITY (%)” value is given as 107%.

In the case of `CN(C)CC/C=C1\c2ccccc2Sc2ccc(Cl)cc21.Cl`, the “NORMALIZED SGLT1 ACTIVITY (%)” value turned out to be 87%.
